# Data as given in PubChem BioAssay AID995 (National Center for Advancing Translational Sciences (NCATS), 2007).
# Where “and” joins values, the source holds several entries; their conditions need not be identical. Equal entries are not always repeated. In all, about 72,000 compounds went through this assay and about 710 (0.99%) were called active. The shares of active, inactive and inconclusive entries below differ from those in the screen. The call rests on the fitted dose curve; in most records, active means well fitted inhibition curve with a large enough effect; inconclusive means small, poorly fitted or top-dose-only effect; inactive means no such curve, though single readings can be large or run the other way. Potencies of inconclusive entries are doubtful fits and often do not repeat.
# Test: qHTS Assay for Inhibitors of the ERK Signaling Pathway using a Homogeneous Screening Assay; further: nearly all actives have a fitted effect of over 55% in size
# Settings: HEK293-V1b, vasopressin-stimulated pERK AlphaScreen; activity, negative = inhibition: at 57.5 µM (top of the series) unless noted
# In short: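 Phosphorylated ERK1/2 detected via AlphaScreen bead proximity in lysates of V1b-expressing HEK293 cells given 25 nM vasopressin for 5 min after 30 min compound exposure (37 °C). AC50 from Hill equation; basal DMSO 0%, vasopressin 100%.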
# On the % scale 0 is the no-effect control and ±100 the full control effect; potency means the concentration at half of the fitted maximal effect; tags describe the fitted curve by direction and shape.
Compound,Potency,"activity, negative = inhibition"
COc1ccc(-c2cc(=O)c3c(O)cc(O[C@H]4OC(COC5OC(C)C(O)C(O)[C@H]5O)C(O)C(O)C4O)cc3o2)cc1O (stereo partly drawn),inactive,–
COc1ccc(S(=O)(=O)Cc2ccc(C(=O)N3CCN(c4ccc(Cl)cc4)CC3)o2)cc1,"inconclusive: 31.6 µM [inhibitor, single point]",–
COc1ccc(NC(=O)c2cc(Cl)ccc2NC(=O)c2ccco2)c(OC)c1,inactive,–
O=C(Nc1nc(-c2cccs2)cs1)c1ccc(S(=O)(=O)N2CCCC2)cc1,"inconclusive: 31.6 µM [inhibitor, single point]",–
COc1nc(N2CCOCC2)nc(-n2cccc2)n1,"inconclusive: 25.1 µM [inhibitor, partial curve]",–
N#CCCn1c(=O)c(CCc2ccccc2)nc2cnc(OCc3ccccc3)nc21,"inconclusive: 5.01 µM [inhibitor, full curve, poor fit]",–
O=C(CSc1ccc(Cl)cc1)Nc1ccc(N2CCN(C(=O)c3ccco3)CC2)cc1,"inconclusive: 20 µM [inhibitor, partial curve]",–
C/C(N)=C(/C#N)C(=O)CSc1nnc(Nc2cccc(C)c2)s1,"inconclusive: 1.26 µM [inhibitor, full curve]",–
N#CC1=C(N)Oc2cc(O)ccc2C1C1CCCCC1 (stereo not drawn),active: 25.1 µM,–
CCCSc1nnc(-c2ccccc2N)c(=O)[nH]1,–,inconclusive: -33.2% [inhibitor]
NCCCCCCNS(=O)(=O)c1cccc2ccccc12,inactive,–
CCOC(=O)N1CCN(S(=O)(=O)c2ccc(C)cc2)C1c1ccc(OC)cc1 (stereo not drawn),–,inconclusive: -31.9% [inhibitor]
Cc1ccc(C)n1-c1ccc(N2CCOCC2)cc1,"inconclusive: 39.8 µM [inhibitor, single point]",–
CC1CCC2C(=O)N3C(CCC(C)C3c3ccc(-c4ccco4)cc3)C(=O)N2C1c1ccc(-c2ccco2)cc1 (stereo not drawn),–,inactive: 34.9% [at 11.5 µM]
CN1CCN(c2ncnc3ccc(-c4ccccc4C(F)(F)F)cc23)CC1,"inconclusive: 2.51 µM [inhibitor, full curve, poor fit]",–
OCC#CCSc1nnc(-c2ccccc2Br)o1,"inconclusive: 12.6 µM [inhibitor, partial curve]",–
CC(C)NCC(O)c1ccc(O)c(O)c1 (stereo not drawn),"inconclusive: 100 nM [inhibitor, full curve] and inconclusive: 79.4 nM [inhibitor, full curve, poor fit]",–
CS(=O)(=O)N(Cc1ccccc1)c1ccc(C(=O)NC2CCCCC2O)cc1 (stereo not drawn),inactive,–
N#CCCn1c(=O)c(-c2ccccc2)nc2cnc(Nc3ccccc3)nc21,"inconclusive: 7.94 µM [inhibitor, partial curve]",–
COc1ccc(-n2c(Cc3cccn3C)nnc2SCC(=O)NCc2ccco2)cc1,"inconclusive: 20 µM [inhibitor, partial curve]",–
Cc1ccc(OCCCC(=O)Nc2ccc(S(=O)(=O)Nc3cc(C)on3)cc2)cc1,–,inconclusive: -31.5% [inhibitor]
COc1ccc(-c2cc(CCCC(=O)NCCc3cc(OC)ccc3OC)no2)cc1,inactive,–
Cc1cc(=O)[nH]c(S/C=C/c2ccccc2)n1,inactive,–

Compound,Potency,"activity, negative = inhibition"
COc1ccc2[nH]c(=O)c(CN(C(=O)C3CCCO3)c3ccc(C)cc3)cc2c1 (stereo not drawn),"inconclusive: 39.8 µM [inhibitor, single point]",–
OC(CN1C2=NCCN2c2ccccc21)c1ccc2c(c1)OCO2 (stereo not drawn),"inconclusive: 20 µM [inhibitor, partial curve]",–
CCOC(=O)CC(=O)CSc1ncc(C(=O)OCC)c(N)n1,"inconclusive: 15.8 µM [inhibitor, partial curve]",–
COCC(=O)N1CCC2(CC1)CCN(c1ccc(-c3ccccc3)cc1)CC2,"inconclusive: 7.94 µM [inhibitor, partial curve]",–
COc1cc(NS(=O)(=O)c2ccc(C)cc2C)cc(OC)c1OC,"inconclusive: 25.1 µM [inhibitor, partial curve]",–
COC(=O)CSc1nc(C2CC2)nc2ccccc12,"inconclusive: 39.8 µM [inhibitor, single point]",–
O=C(Nc1ccc(F)cc1)N(Cc1ccco1)Cc1cc2cc3c(cc2[nH]c1=O)OCO3,active: 20 µM,–
O=C(Nc1ccc(N2CCOCC2)cc1)c1ccc2nc(-c3ccco3)c(-c3ccco3)nc2c1,"inconclusive: 0.316 µM [inhibitor, full curve, poor fit]",–
Cc1ccc2oc(=O)n(CCOc3ccccc3Cl)c2c1,inactive,–
O=C(CCC1N=C2c3ccccc3N=C(SCc3ccccc3Cl)N2C1=O)NCc1ccco1 (stereo not drawn),inactive,–
O=S(=O)(Nc1cccc(-c2cn3ccsc3n2)c1)c1ccc(F)cc1,active: 20 µM,–
Cc1c(C(=O)Nc2cccc(C(F)(F)F)c2)oc2ccc(S(=O)(=O)N3CCOCC3)cc12,"inconclusive: 15.8 µM [inhibitor, partial curve]",–
COc1ccc(C2C=C(c3ccc(Br)s3)Nc3ncnn32)cc1OC (stereo not drawn),"inconclusive: 31.6 µM [inhibitor, single point]",–
CC(=O)N(CC(O)CN(C(C)=O)c1c(I)c(C(=O)NC[C@@H](O)CO)c(I)c(C(=O)NC[C@@H](O)CO)c1I)c1c(I)c(C(=O)NC[C@@H](O)CO)c(I)c(C(=O)NC[C@@H](O)CO)c1I,inactive,–
NC(=O)c1ccc(N2CCCCC2)c(N2C(=O)CCC2=O)c1,inactive,–
O=C(NCCCN1CCN(C2CCCCC2)CC1)Nc1ccccc1C(F)(F)F,inactive,–
Cc1nc(SCC(=O)N2CCN(c3ccccc3)CC2)c2oc3ccccc3c2n1,"inconclusive: 3.16 µM [inhibitor, full curve]",–
O=C(c1ccc(O)cc1)c1ccc(Cl)cc1,"inconclusive: 0.794 µM [inhibitor, partial curve]",–
CC1CN(c2nc3ccccn3c(=O)c2/C=C(\C#N)S(=O)(=O)c2ccccc2)CC(C)O1 (stereo not drawn),"inconclusive: 20 µM [inhibitor, partial curve]",–
CCC(C)c1ccc(O)c(NC(=O)c2cncc(Br)c2)c1 (stereo not drawn),"inconclusive: 39.8 µM [inhibitor, single point]",–
COc1ccccc1CNc1cc(-c2cccc(C#N)c2)ncn1,"inconclusive: 6.31 µM [inhibitor, full curve]",–
Cc1ccc(-c2cc(C(F)F)n3ncc(C(=O)N4CCN5CCCC5C4)c3n2)cc1 (stereo not drawn),inactive,–
CCC(=O)c1cc(F)c(N2CCN(C(=O)c3ccco3)CC2)cc1C,"inconclusive: 31.6 µM [inhibitor, single point]",–

Compound,Potency,"activity, negative = inhibition"
O=C(O)[C@H]1[C@H](C(=O)O)[C@H](C(=O)O)C[C@@H]1C(=O)O,–,inactive: -5.75% [at 11.5 µM]
CN(Cc1ccccc1)c1nc2c(c(=O)[nH]c(=O)n2C)n1CCCSc1ncccn1,"inconclusive: 15.8 µM [inhibitor, partial curve]",–
COc1cc(Br)cc(CN2CCN(C/C=C/c3ccccc3)CC2)c1O,"inconclusive: 25.1 µM [inhibitor, partial curve]",–
Cc1cc(C)c2nc(C(F)(F)F)nc(N3CC(C)OC(C)C3)c2c1 (stereo not drawn),inactive,–
COc1ccc(-c2onc3ccc(Cl)cc23)cc1OC,"inconclusive: 15.8 µM [inhibitor, partial curve]",–
COc1ccccc1NC(=O)CN1CCC(n2c(C)nc3cc(F)ccc32)CC1,"inconclusive: 15.8 µM [inhibitor, partial curve]",–
C=CCn1c(C)cc(C(=O)CSc2nnc(NCc3ccccc3)s2)c1C,"inconclusive: 31.6 µM [inhibitor, single point]",–
N#Cc1ccc(CSc2nnc(-c3cccnc3)n2-c2ccccc2)cc1,"inconclusive: 12.6 µM [inhibitor, single point]",–
Cc1ccccc1C(=O)Nc1ccc(Br)cn1,"inconclusive: 0.631 µM [inhibitor, full curve, poor fit]",–
CC1=CC(C)(C)N(C(=O)c2ccccc2)c2ccccc21,inactive,–
COc1ccccc1N1C(=O)CC(Nc2ccc(N3CCOCC3)cc2)C1=O (stereo not drawn),"inconclusive: 39.8 µM [inhibitor, single point]",–
CO[C@@H]1COC(=O)[C@H](C)NC(=O)C/C=C\[C@@H](C)[C@H](OC)COC(=O)[C@H](C)NC(=O)C/C=C\[C@H]1C,–,inactive: 37.2% [at 11.5 µM]
COC(=O)c1cc(Nc2cc(C)nc3ncnn23)cc(C(=O)OC)c1,"inconclusive: 31.6 µM [inhibitor, single point]",–
Cn1c(SCC(=O)c2ccc(-c3ccccc3)cc2)nnc1-c1ccco1,"inconclusive: 39.8 µM [inhibitor, single point]",–
CSc1nc(C)c(C(=O)Nc2ccccc2)c(C)c1C#N,inactive,–
CCOC(=O)N1CCN(C(=O)CCn2nc(-c3ccc(Cl)cc3)ccc2=O)CC1,"inconclusive: 3.16 µM [inhibitor, single point]",–
CCOC(=O)c1[nH]c2ccc(OCC)cc2c1NC(=O)CN1CCN(c2ccccn2)CC1,inactive,–
CCOC(=O)c1ccc(NC(=O)Nc2ccc3c(c2)OCCO3)cc1,active: 25.1 µM,–
CCC(=O)N1CCN(c2ccccc2NC(=O)c2cccc(C)c2)CC1,inactive,–
CCNc1ncc2nc(-c3cn(C)c4ccccc34)c(=O)n(Cc3ccc(F)cc3)c2n1,inactive,–
COc1ccc(-c2nnc(-c3cccs3)o2)cc1OC,"inconclusive: 15.8 µM [inhibitor, partial curve]",–
COc1ccc(-c2cc(C(F)(F)F)nc(SCC(=O)N3CCOCC3)n2)cc1OC,"inconclusive: 12.6 µM [inhibitor, partial curve]",–
